In PubChem BioAssay AID1745845 (National Center for Advancing Translational Sciences (NCATS), 2022):
In all, about 360,000 compounds went through this assay and about 2,600 (0.72%) were called active. This list was built around the results that the source calls inconclusive (neither active nor inactive); the mix of calls is not that of the screen. Calls follow the shape of the dose curve; as a rule, active = well fitted inhibition curve with a large enough effect; inconclusive = small, poorly fitted or top-dose-only effect; inactive = no such curve, though single readings can be large or run the other way. Potencies of inconclusive entries are doubtful fits and often do not repeat.

experiment: Primary qHTS for Inhibitors of ATXN expression; settings: HEK-293 ATXN2-luciferase reporter, luminescence, 24 h; series mostly up to 57 µM; also: nearly all actives have a fitted effect of over 55% in size
Method in brief: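 ATXN2-luciferase reporter cells (luciferase flanked by upstream and downstream ATXN2 gene portions) were treated 24 h at 37 °C with compounds at up to 57 uM. SteadyGlo luminescence gave expression; GF-AFC fluorescence gave viability.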
Potency is read from the fitted curve at half-maximal effect; tags tell the direction and shape of the fitted curve.

Structure (SMILES)	Potency
CCOC(=O)c1c(S(=O)(=O)NCC(=O)Nc2cccc(CC)c2)c(C)n(C)c1C	inactive
Cc1cccc(C)c1-c1ccc(CN2C(CC(C)C)C(=O)N(Cc3cn(CCO)nn3)CCS2(=O)=O)cc1 (centres undefined)	active: 28.2 µM
O=[N+]([O-])c1cccc(NNS(=O)(=O)c2ccccc2F)c1	inactive
C[C@@H]1C=CC(=O)O[C@@H]1c1ccc(Cl)cc1	inconclusive: 2.24 µM [inhibitor, partial curve]
O=C(CNC(=S)N(Cc1ccccc1F)C1CCCCC1)NCC1CCCO1 (centres undefined)	inactive
COc1cc2[nH]c(=S)n(Cc3ccc(C)cc3)c(=O)c2cc1OC	inconclusive: 35.5 µM [inhibitor, single point]
CN(C)CCNC(=O)c1cccc(-c2cnc3c(NC=O)cc(-c4cccc(F)c4)cn23)c1	inconclusive: 28.2 µM [inhibitor, single point]
COc1ccc(NC(=O)/C(C#N)=C/c2cc(C)n(-c3ccc(N4CCOCC4)c([N+](=O)[O-])c3)c2C)cc1	inconclusive: 3.55 µM [inhibitor, full curve]
CC[C@H]1OC(=O)[C@H](C)[C@@H](O[C@H]2C[C@@](C)(OC)[C@@H](O)[C@H](C)O2)[C@H](C)[C@@H](O[C@@H]2O[C@H](C)C[C@H](N(C)C)[C@@H]2O)[C@](C)(OC)C[C@@H](C)C(=O)[C@H](C)[C@@H](O)[C@]1(C)O	inconclusive: 17.2 µM [inhibitor, partial curve]
CC(C)N(C(=O)[C@H]1C[C@H](CC(=O)NCCC2=CCCCC2)C(=O)N2CCc3c([nH]c4cc(-c5ccco5)ccc34)[C@]12C)C(C)C	inconclusive: 39.8 µM [inhibitor, single point]
Cc1ccc(S(=O)(=O)Nc2ccc3c(c2)CCC3)cc1	inconclusive: 39.8 µM [inhibitor, partial curve, poor fit]
COCCCN=C1NN=C(c2cc(C)n(-c3ccccc3F)c2C)CS1	inconclusive: 22.4 µM [inhibitor, single point]
NC(COCc1ccccc1)c1csc(Nc2cc(NCCCO)ncn2)n1 (centres undefined)	inactive
NC(=O)CC(NC(=O)c1ccc(Br)cc1)c1ccc(NC2CCCCCCC2)c([N+](=O)[O-])c1 (centres undefined)	inconclusive: 25.1 µM [inhibitor, single point]
O=[N+]([O-])c1cncc([N+](=O)[O-])c1Nc1cccc(O)c1	active: 20 µM
CC(C)C[C@@H](CN1CCC[C@H]1CN1C(=O)C(=O)NC[C@@H]1Cc1ccccc1)N1C[C@H](Cc2ccccc2)N(CCc2ccccc2)C(=O)C1=O	inconclusive: 25.1 µM [inhibitor, single point]
O=C(Cc1cccc(NC(=O)C2CCCN(C(=O)C3CCC3)C2)c1)Nc1cccc(C(=O)N2CCCC2)c1 (centres undefined)	inconclusive: 39.8 µM [inhibitor, single point]
O=c1[nH]c(Nc2nc3ccccc3o2)nc2c1CCCC2	inconclusive: 5.62 µM [inhibitor, full curve, poor fit]
O=C(/C=C\c1ccco1)Nc1nc(-c2ccc3ccccc3c2)cs1	inconclusive: 31.6 µM [inhibitor, single point]
Cc1nn(Cc2ccc(Cl)cc2)c(C)c1NC(=O)c1noc2c1CCc1ccccc1-2	inconclusive: 35.5 µM [inhibitor, partial curve, poor fit]

Structure (SMILES)	Potency
O=C(CCN1CCN(c2ccccc2)CC1)N/N=C/c1ccccc1O	active: 26.7 µM
COc1cc(Nc2c3ccccc3nc3ccccc23)cc(OC)c1OC	inconclusive: 31.6 µM [inhibitor, single point]
Cc1cc([N+](=O)[O-])ccc1NC(=S)NC(=O)Cc1ccccc1	inactive
CC(Nc1nc(N2CCCC2)nc2ccccc12)c1ccccc1 (centres undefined)	inconclusive: 22.4 µM [inhibitor, partial curve, poor fit]
C=CC(=O)Nc1sc2c(c1C(N)=O)CCCC2	inconclusive: 35.5 µM [inhibitor, single point]
O=C(Nc1nccs1)c1nc[nH]c1C(=O)NCc1ccccc1	inconclusive: 1.12 µM [inhibitor, full curve, poor fit]
CN(C)CC(O)COC(c1ccc(Cl)cc1)c1ccc(Cl)cc1 (centres undefined)	inconclusive: 12.6 µM [inhibitor, partial curve]
Cc1cccc(N2CCN(C(=O)CCCn3c(=O)c4cccn4c4cccnc43)CC2)c1C	inconclusive: 39.8 µM [inhibitor, single point]
Cc1ccc(C)c(CN2CCCN(Cc3cc(C)ccc3C)S2(=O)=O)c1	inactive
Cc1ccc2c(c1)NC(=O)C(CC(=O)NCCCN1CCN(c3cc(Cl)ccc3C)CC1)O2 (centres undefined)	inconclusive: 28.2 µM [inhibitor, single point]
O=S1(=O)Nc2c(ccc3cccnc23)-c2ccccc21	active: 3.55 µM
Oc1[nH]c2ccccc2c1N=NC(=S)NCC1CCCO1 (centres undefined)	inconclusive: 39.8 µM [inhibitor, single point]
CCCC(O)c1nc2ccccc2n1CCCCOc1ccc(OC)cc1 (centres undefined)	inconclusive: 39.8 µM [inhibitor, single point]
CC1CC(C)(C)NC(=S)N1CC(=O)N(C)Cc1ccccc1 (centres undefined)	inactive
O=C1OC[C@@H]2CCCN2C(=O)[C@H](CC(=O)N(CCO)Cc2ccccc2)C/C=C\C[C@H]1Cc1ccc(F)cc1	inactive
CCn1c2c(c(=O)n3ncc(C(=O)Nc4cccc(Cl)c4C)c13)CN(Cc1ccc(OC)cc1)CC2	inactive
CC(C)NC(=O)Nc1ccc2c(c1)C(=O)N([C@H](C)CO)C[C@H](C)[C@@H](CN(C)Cc1ccc(C(F)(F)F)cc1)OCCCC[C@@H](C)O2	inconclusive: 28.2 µM [inhibitor, single point]
COc1cc2c(cc1NC(=O)CN(C)Cc1nc3ccccc3c(=O)[nH]1)oc1ccccc12	inconclusive: 22.4 µM [inhibitor, single point]
Cc1ccc(C)c(-c2cc(C(=O)Nc3sc(C)c(C)c3C(N)=O)c3ccccc3n2)c1	inconclusive: 35.5 µM [inhibitor, single point]
